# From paper PMC7819943, “Rice protein-binding microarrays: a tool to detect cis-acting elements near promoter regions in rice”
# Some of the results follow.
# Molecular target: T1, OsWOX13 (Oryza sativa, UniProt Q5QMM3 1-267)
# T1 sequence: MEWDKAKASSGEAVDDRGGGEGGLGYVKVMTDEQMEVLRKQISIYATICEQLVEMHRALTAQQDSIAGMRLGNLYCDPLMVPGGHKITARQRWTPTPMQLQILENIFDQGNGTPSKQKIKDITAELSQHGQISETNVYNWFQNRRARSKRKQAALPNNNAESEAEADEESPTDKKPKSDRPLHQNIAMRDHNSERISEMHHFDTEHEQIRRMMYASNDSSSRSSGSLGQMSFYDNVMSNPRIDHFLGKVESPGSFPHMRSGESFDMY
# Test: protein-binding microarray (RPBM); PBS, 2% BSA, 51.3 ng/ul salmon testes DNA, 50 uM zinc acetate, 200 nM TF, 25 C, 1 h; high values mean tight binding
# Settings: protein: recombinant; tags: N-terminal polyhistidine and DsRed monomer fusion (pET32a); label: CyDye5-dUTP incorporated in the synthesized complementary strand; 3' TTTTT single-stranded linker to array surface; dsDNA, one strand shown
# Method in brief: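 The binding signal is fluorescence intensity per array feature (arbitrary units). Readings came from an Axon 4000B scanner after a washed, 2% BSA-blocked, double-stranded custom Agilent array had been incubated for 1 h at 25 °C with 200 nM protein and 50 µM zinc acetate. The protein was a Ni–NTA-purified transcription factor fused N-terminally to polyhistidine and DsRed, expressed in E. coli BL21-CodonPlus.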
row,Sequence,binding signal
1,TCCTTAAATCAACATCAATTCGGCTTGTTGTTATCATCTACGGAGTCACCTAGTGCAG,7560 fluorescence intensity (a.u.)
2,TTTTGATTGCCAATAAGGTTTTCATCGGGGTTTCAGCCGACGGAGTCACCTAGTGCAG,34800 fluorescence intensity (a.u.)
3,AAAACATAACAAATTTTCTAGATGAGACTTTGCATATATGCGGAGTCACCTAGTGCAG,3590 fluorescence intensity (a.u.)
4,AGCTTCAGATTGAACGACCAATACTATATGCCAATTGAATCGGAGTCACCTAGTGCAG,4260 fluorescence intensity (a.u.)
5,CAAAATTGAAAACTTCTTATTTGAAATTCAAAACTTTCAACGGAGTCACCTAGTGCAG,10200 fluorescence intensity (a.u.)
6,CGTACTTAATTTTATGATCTACAATCGTTAGGCCATGTGACGGAGTCACCTAGTGCAG,8690 fluorescence intensity (a.u.)
7,AGCAGCATGATTAGTACAGCACACCTTTGCGGATCCAATGCGGAGTCACCTAGTGCAG,11500 fluorescence intensity (a.u.)
8,CTGCGAAATTGATAACAAAGTGAACAAGGCCTTAATCAACCGGAGTCACCTAGTGCAG,30100 fluorescence intensity (a.u.)
9,CTAAATTTTACTAAAATTTAGTAAGGTTTATTTAGGCCACCGGAGTCACCTAGTGCAG,15500 fluorescence intensity (a.u.)
10,TTATAATTGACACTACGAGAATGGGTCTTTACTGCCGGTTCGGAGTCACCTAGTGCAG,57700 fluorescence intensity (a.u.)
11,GGTGAAATTAATCTCCTGGCAAATTAAGTCAAGATGCACCCGGAGTCACCTAGTGCAG,12000 fluorescence intensity (a.u.)
12,CGAGATTGGGACATGCGTGCAAGTCACCACAAGCTCTCTCCGGAGTCACCTAGTGCAG,10500 fluorescence intensity (a.u.)
13,AGGTTAATTTAGCAAATACACTGTAGCAATCAAGCGGCTCCGGAGTCACCTAGTGCAG,14100 fluorescence intensity (a.u.)
14,ATTTGATTATTCAAATGCAGGTGGAGTCAATGAGCAACCACGGAGTCACCTAGTGCAG,8370 fluorescence intensity (a.u.)
15,GAATCACCTCGTTGATTTGATCTTATCGCGAGTATGATGGCGGAGTCACCTAGTGCAG,4270 fluorescence intensity (a.u.)
16,ACTAAATCAAAGATTAACAGTAGCAGCAGAGTAAAGAGAGCGGAGTCACCTAGTGCAG,11400 fluorescence intensity (a.u.)
17,TACTATGATTTTCTTTGAATTCAGGTCCTTGCGATTCCAGCGGAGTCACCTAGTGCAG,3510 fluorescence intensity (a.u.)
18,TTTAAACCACTATAATTTAATACGTAAAGAAACAGCAACTCGGAGTCACCTAGTGCAG,3680 fluorescence intensity (a.u.)
19,TTTTATTAAATTTAACATTGAATATATTCTCTGATAGTTTCGGAGTCACCTAGTGCAG,8320 fluorescence intensity (a.u.)
20,TTGATATAATATTCTATTAATCCTATTAAGTCGTGGGCCGCGGAGTCACCTAGTGCAG,5340 fluorescence intensity (a.u.)
21,CTTTGACATAACAACCTTCCCATAACTCCTGTTTTAACCCCGGAGTCACCTAGTGCAG,9330 fluorescence intensity (a.u.)

row,Sequence,binding signal
1,CCGGATTAATAGATCGACCGATCGATCACACTCGCCTCCACGGAGTCACCTAGTGCAG,21900 fluorescence intensity (a.u.)
2,CGCGTTGATTAATTAGTCAGTTCGTTAACAACCTCGACTACGGAGTCACCTAGTGCAG,53000 fluorescence intensity (a.u.)
3,AGCCAACTGTCGACTTCAAATTAACTATAGTTAATTTTAGCGGAGTCACCTAGTGCAG,6640 fluorescence intensity (a.u.)
4,ACCCGGCCCCACGCGTCAGTGAAACCCAACAGTCTCCTGACGGAGTCACCTAGTGCAG,15200 fluorescence intensity (a.u.)
5,ATGATGATTGTTAGTGGATGATGATGTGTCATCTTGTTAACGGAGTCACCTAGTGCAG,38400 fluorescence intensity (a.u.)
6,ATTATTTCTTAATTGGATTCTAGTAACAGTTAATTAAGGACGGAGTCACCTAGTGCAG,23200 fluorescence intensity (a.u.)
7,CAGAGATTGAGAATAATCAAGCAATCAGTTCCAAACAAACCGGAGTCACCTAGTGCAG,16500 fluorescence intensity (a.u.)
8,AATCAATCATTTGTTTCTTACTTGGAGTTCGCCTGGTTACCGGAGTCACCTAGTGCAG,33600 fluorescence intensity (a.u.)
9,TCTTTGACTTAACTGCACCCAAGTTATTGCATGCTCTCTTCGGAGTCACCTAGTGCAG,4900 fluorescence intensity (a.u.)
10,GTTTGCTTCCATCATTCAATCATTACCTTTCAGGAAGATGCGGAGTCACCTAGTGCAG,10600 fluorescence intensity (a.u.)
11,ATTAATAGATCGGTATTACATGATTTGAAGTTTTGAACTCCGGAGTCACCTAGTGCAG,13200 fluorescence intensity (a.u.)
12,ACTCCTGTTTAATTATTATTATTGGCTATTCCTCCCTCGCCGGAGTCACCTAGTGCAG,12300 fluorescence intensity (a.u.)
13,ATGATTACAATATATTAGAGTTATAACTATCCTCGATGAACGGAGTCACCTAGTGCAG,18200 fluorescence intensity (a.u.)
14,CATTGATGGATTCACAACACCCGCTCTTGCATGAACCGATCGGAGTCACCTAGTGCAG,18100 fluorescence intensity (a.u.)
15,GATGGGCCTATTACAATTATTGATTGTTGTTATGTTTGCACGGAGTCACCTAGTGCAG,12800 fluorescence intensity (a.u.)
16,GATATTCTAGTTACCACTTAATTAGCAGCCCTGATATTTGCGGAGTCACCTAGTGCAG,4610 fluorescence intensity (a.u.)
17,AAGCTAATCGGCAAAGAAAATTGAATTGATCTACTTCTAACGGAGTCACCTAGTGCAG,3650 fluorescence intensity (a.u.)
18,TTATATAAATTGGCTATTAGATTGGCTACAAATGAATTAGCGGAGTCACCTAGTGCAG,31600 fluorescence intensity (a.u.)
19,CTAAAATTGAGAAATTGAGGGAGTATTTATCTGAAATCATCGGAGTCACCTAGTGCAG,6180 fluorescence intensity (a.u.)
20,ATGGTGGCTGAAGGGGTTGGATTGGATGAGGTGACATATACGGAGTCACCTAGTGCAG,3360 fluorescence intensity (a.u.)
21,TGTATTTAAAATTGATACATCTAGCCTAATTTCAACCGAACGGAGTCACCTAGTGCAG,4970 fluorescence intensity (a.u.)
